Data taken from the supplement of paper PMC11417369.
The list shows a part of the results.

System: PF3D7_0420300 AP2 domain 1 (GST-tagged)
Test: gcPBM binding intensity (ln(normalized median fluorescence intensity)); higher = stronger DNA binding
In short: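 After 1 h on an Agilent 4 × 180k array of primer-extended double-stranded 36-bp intergenic genomic probes and negative controls, bound GST-tagged P. falciparum DNA-binding domains were detected with Alexa488 anti-GST antibody and scanned at 488 nm. The domains had been expressed in E. coli, and binding took place in 1× PBS with 1% milk, 0.2 mg/ml BSA, 0.5% salmon testes DNA and 0.03% Triton X-100. Binding intensity is the highest Masliner-normalised natural-log median intensity across replicate spots of either probe orientation.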

Sequence | gcPBM binding intensity (ln)
ATTTTATGAAATGTTGCACACAAAAAACAACATGTT [CACACA_site8408] | 9.34
TATATGATATAATATACACACATACATATATATATA [CACACA_site8066] | 9.44
GAACAACAACAAAAAAAAAAAAAAAAAAAAAAAAAA [CACACA_negctrl_site199] | 8.63
TAAATAAATATATGTACACACACAAATATATACATA [CACACA_site8577] | 9.63
CTGAATTTTTATAACTGTACATATTTGATATAAAAA [XGTACX_site183] | 8.89
ATATTTAATACAAATACACACACAAATATATACATA [CACACA_site9248] | 10.1
ATGGGAAAAACATTCCGTACATACATACACATATAT [XGTACX_site8263] | 9.4
ATGATTTATTATTATACACACAAAAAAAAAAAAGGA [CACACA_site264] | 9.51
GAACAAAAAAAAAATTGTACACAATTTTTTAAAATT [XGTACX_site4455] | 8.98
AATACATACATATATACATGCATACATATAAATATA [TGCATGCA_site674] | 9.41
GCTTATAAGATATGCACACACAACACTTACAAAAAA [CACACA_site817] | 9.74
AAACAAAAAAAATAAGCACACATATATATATATATA [CACACA_site8173] | 9.43
AAAATTATATGTAATTGTACGGAATTATATACGCAA [XGTACX_site2048] | 9.25
TCCTGTGGTTATATAACACACATTATTGCTTATAAG [CACACA_site6823] | 9.48
TTTTTTAAAAATATTATCATCGTAACAAGAAATCGA [CACACA_negctrl_site1111] | 8.94
TTTTTTTTTTTTTTTGCACACTTAAATTTGGTGGGG [CACACA_site2344] | 9.74
ATATTATTTTATTTTTGTACAGATATCTTTAAAAAA [XGTACX_site3734] | 9.09
TACAGATAAATATACATACATATATATATATATATA [XGTACX_negctrl_site182] | 9.05
CACGCGCACGAACACACACACACACGCATATAAATA [CACACA_site7103] | 10.3

Sequence | gcPBM binding intensity (ln)
AACATCATCTCTCCACAACAACAAAAAAAAAAATAC [CACACA_negctrl_site311] | 9.4
TTATTAAAAATGGTATGTACGCACATAATATATATA [XGTACX_site3230] | 9.2
AATACATACATACATACATGCATATATATATATATA [TGCATGCA_site462] | 9.42
TATTTTTATTGGTGAATACACACGTATATATATATT [CACACA_site2401] | 9.45
TGTTTATGTTTACATGTGCGCATTACAGAAAAAAAA [GTGCAC_site9669] | 9.06
TTTTTATTTAAAAGTAGTACAAGGGTTATTATTAAC [XGTACX_site1555] | 8.97
GAAATCTAATTTATTACACACATTTGAAAAAAATTC [CACACA_site6640] | 9.23
ACCCATTTTTGTTGTTCTATATATTCGTGAATCATT [CACACA_negctrl_site614] | 9.53
TTATATTTTTTTGAGTGTACTTTTTGTGTAAAATTC [XGTACX_site2155] | 9.09
TTACTAAGAAGGATTTATTTTATAAAAATATTTATT [XGTACX_negctrl_site549] | 8.87
AATTTTTTGAATAATTGTACATATTTGGTTAAATAT [XGTACX_site3612] | 9.16
ATATTTTATACTTGCACACAAAATATATTAGAATGT [CACACA_site1985] | 9.41
CATATTATTTATATTTGTACACAGCGATATGAAATA [XGTACX_site7717] | 9.29
CTTACATAAAATATCACACACATAAAAAAACAATAT [CACACA_site1901] | 10.1
TATATATATATATATGTGCACATATATATGATATTA | 9.11
TTATATAAATATAAGGTGCTGGGGTTTATTACATAT [GTGCAC_site9909] | 9.53
ATATCGCACGTTTGAAGTACATAAAAACGATTAATA [XGTACX_site7684] | 9.06
CACCAATTCATATGCACACACATCTGCATATTATAG [CACACA_site6925] | 9.79
ATCATTTTTATAAATTGTACAAATATTTTTTATACA [XGTACX_site7551] | 9.13

Sequence | gcPBM binding intensity (ln)
ATTTCGTAATTTATATCACACACATATATATATAAT [CACACA_site9021] | 9.67
ATATATGGGTAGTATACACACTGTATATTTAGGAAT [CACACA_site7357] | 9.46
GTATGAAAAAAATATGCATGCTAAATAATAAATGTT [TGCATGCA_site352] | 9.34
TATATATATATACATACATATAAAGTTACATAAACA [CACACA_negctrl_site432] | 9.25
GAACAAACAAAGAAAGAACACACATACACAATATAC [CACACA_site8918] | 10.1
TAGATTTTTTTACATTGTACATATTTTTTCTTATAG [XGTACX_site293] | 9.46
TATAAAATATAAATTTGTACATATAAAATATTTTAT [XGTACX_site7462] | 9.02
TTTTTTAAAATATAAAATATGTACAAATATGTTGAA [GTGCAC_negctrl_site379] | 8.91
TAATAGTTATAAAATACACACCAGGCATGATAAATG [CACACA_site4335] | 9.5
AATATTTTAAAAAAATGTACTTTTAACCCTTATTGG [XGTACX_site3490] | 8.91
TACATATTTACTATCACACACACGATATATATAAAT [CACACA_site1242] | 9.93
ATACGAAAAAATAGACGTACTATGAAATAATAATTT [XGTACX_site8387] | 9.27
TACTTAAAAAAAAAAAAAATAAATATTATGTATTAT [CACACA_negctrl_site138] | 8.98
TAATATTTTAATTGTGTGCACATTAATATTATAAAA | 9.17
TTTAGTGAGTTTGTTGTGCACTGAAAAAATTACAAT | 9.1
TATATTATTTTTTGTGGTACATGTATTTTTACCTAA [XGTACX_site4348] | 9.28
ACATGTAAATTTACATGTACATGTAACACTTAATAT [XGTACX_site4575] | 9.39
AAAACAAACGGACACACACACATATATATATATATA [CACACA_site5924] | 9.97
ATGCATACACTTATATGTACACATTTACATATTATT [XGTACX_site2841] | 9.53
